# Whole data set: some 110,000 compounds, median “z-score” near -0.1, cut for the highest 2% near 2. Some of the results follow. Calls of active or inactive are those of the source.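 How the source made its calls: active means z-score in the third read window above 3 or below -3; inactive means the rest.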
# Target: Metabotropic glutamate receptor 8 (Rattus norvegicus) (UniProt P70579)
# Experiment: rat mGluR8 modulators via GIRK flux, primary screen, cell-based, thallium flux, HTS (AID 488969)
# Conditions: HEK293 rat mGluR8, GIRK (G protein-gated inwardly rectifying potassium channel) thallium flux, FluoZin2; at 10 µM; stronger effect = higher value; submaximal glutamate (EC20) added with thallium
# Chain of UniProt P70579 (P70579 whole entry, looked up): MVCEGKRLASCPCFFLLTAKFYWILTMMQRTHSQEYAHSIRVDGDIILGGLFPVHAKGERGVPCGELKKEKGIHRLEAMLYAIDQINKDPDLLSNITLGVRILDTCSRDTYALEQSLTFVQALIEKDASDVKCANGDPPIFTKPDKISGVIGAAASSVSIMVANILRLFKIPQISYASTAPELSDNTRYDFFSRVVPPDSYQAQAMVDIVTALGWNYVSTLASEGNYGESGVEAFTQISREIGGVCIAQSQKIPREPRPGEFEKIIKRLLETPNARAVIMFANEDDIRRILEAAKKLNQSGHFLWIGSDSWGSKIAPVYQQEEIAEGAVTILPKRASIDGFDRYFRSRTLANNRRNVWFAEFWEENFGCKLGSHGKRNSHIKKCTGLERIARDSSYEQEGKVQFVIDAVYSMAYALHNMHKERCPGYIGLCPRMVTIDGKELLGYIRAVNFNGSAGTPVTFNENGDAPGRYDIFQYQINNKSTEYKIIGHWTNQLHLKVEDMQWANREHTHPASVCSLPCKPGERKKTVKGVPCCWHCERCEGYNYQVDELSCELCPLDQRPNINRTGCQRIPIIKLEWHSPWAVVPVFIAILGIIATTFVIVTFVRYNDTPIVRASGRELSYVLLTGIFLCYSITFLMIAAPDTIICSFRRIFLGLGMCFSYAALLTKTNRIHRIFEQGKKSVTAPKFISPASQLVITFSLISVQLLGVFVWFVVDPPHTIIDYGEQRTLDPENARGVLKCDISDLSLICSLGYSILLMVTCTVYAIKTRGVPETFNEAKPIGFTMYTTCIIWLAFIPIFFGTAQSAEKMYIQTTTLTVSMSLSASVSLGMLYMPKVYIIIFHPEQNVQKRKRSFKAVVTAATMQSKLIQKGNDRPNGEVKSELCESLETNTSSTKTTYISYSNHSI
row,Structure (SMILES),z-score
1,CCCCSc1nnc(-c2ccccc2N)c(=O)[nH]1,-0.948
2,CCN(CC)S(=O)(=O)c1ccc(C(=O)Oc2ccc3c(c2)OCO3)cc1,-0.26
3,CC(C)NC(=O)C(=O)NCCN1CCN(S(=O)(=O)c2ccc(Cl)cc2)CC1,-0.0595
4,CC(C)c1ccccc1NC(=O)COC(=O)c1c2c(nc3ccccc13)CCN(Cc1ccccc1)C2,0.105
5,CC1(C)Cc2ccccc2-c2nnc(-c3cccnc3)n21,0.241
6,Cc1ccc(CNC(=O)c2ccc(Br)o2)cc1,0.0302
7,CC(=O)NN1C(=O)c2ccccc2NC1c1ccccn1 (stereo not given),-0.25
8,CCOC(=O)CSc1nc2ccccc2n1CC(=O)NC(C)(C)C,1.48
9,Cn1c(CN2CCCCC2)nc2cc(NC(=O)c3ccc(Cl)cc3)ccc21,-0.288
10,c1cc2c(cc1-c1cnc3n1CCC3)OCCO2,-0.449
11,COC(=O)c1c(-c2ccc(C(C)(C)C)cc2)csc1NC(=O)C1C2CCC(O2)C1C(=O)O (stereo not given),-0.268
12,Cc1ccc(-n2c(C)cc(C3N=C(N)Nc4nc5ccccc5n43)c2C)c(C)c1 (stereo not given),-0.207
13,Cc1nn(-c2ccccc2)c2sc(C(=O)N3CCCCC3)cc12,0.23
14,COc1cc2oc3ccccc3c2cc1N(CC(=O)N(C)C)S(=O)(=O)c1ccc(C)cc1,-0.642
15,O=C(NCc1ccccn1)C1CCCN(S(=O)(=O)c2ccccc2)C1 (stereo not given),-0.251
16,COc1ccccc1COC(=O)Nc1c(C)nn(C)c1Cl,-0.0526
17,COc1ccccc1-n1c(CCn2nc(C)c(Br)c2C)n[nH]c1=S,-0.472
18,NC(=O)C1(NC(=O)[C@@H]2CC3(CC(c4cccc(NC(=O)[C@@H]5CCC(=O)N5)c4)=NO3)CN2C(=O)Cc2ccc(Cl)cc2)CC1 (stereo not given in full),0.0125
19,CCOc1ccc(=O)n(-c2ccccc2)n1,0.497
20,CCCc1nnc(NC(=O)CN2CCOCC2)s1,0.202
21,Cc1ccc(-c2nc(N3CCOCC3)sc2C(=O)N2CCOCC2)cc1,-0.276
22,CC(C)COP(=O)(OCC(C)C)C(O)c1ccccc1F (stereo not given),-0.0331
23,CC(/C=N/NC(=O)c1cc(-c2cccs2)[nH]n1)=C\c1ccccc1,-0.431
24,O=C(CCN1C(=O)S/C(=C\c2ccccc2)C1=O)N1CCOCC1,0.337

row,Structure (SMILES),z-score
1,CC(C)c1ccc(N(C(=O)c2cc3ccccc3oc2=O)C2C=CS(=O)(=O)C2)cc1 (stereo not given),-0.191
2,Nc1cc(N)c(OCC(F)(F)F)cc1OCC(F)(F)F,-0.00384
3,O=C(CCN1C(=O)c2ccccc2C1=O)N1CCC(c2ccccc2)C1 (stereo not given),0.282
4,O=C(NCc1ccccc1)c1ccc(Oc2ccc(C(=O)NCc3ccccc3)cc2)cc1,0.287
5,COc1cc(C(=O)Nc2nc3ccccc3s2)ccc1OCc1c(C)noc1C,-0.121
6,COc1ccc(NS(=O)(=O)c2coc(C(N)=O)c2)cc1Cl,0.283
7,O=c1cc(-c2ccccc2)[nH]c2ccccc12,-0.912
8,CCn1c(-c2ccc(OC)c(OC)c2)n[nH]c1=S,0.0812
9,COc1ccccc1Oc1nc2c(c(=O)n(Cc3ccccc3F)c(=O)n2C)n1C,-0.585
10,COc1ccc(-c2[nH]ncc2/C=C(/C#N)C(=O)NC2CCCCCC2)cc1,-0.264
11,Cc1ccc2c(c1)C(=O)N(CCCCO)C2=O,-0.0574
12,COCCn1c(COc2ccc(Cl)cc2)nnc1SCC(N)=O,0.434
13,O=C(OCC(=O)c1ccc[nH]1)c1ccc(S(=O)(=O)N2CCCCC2)cc1,0.0988
14,CC(C)c1nnc(SCC(=O)N2CCc3ccccc32)n1C,0.469
15,CCN(CC)CCCNC(=S)N(Cc1ccco1)Cc1cc2cc3c(cc2[nH]c1=O)OCCO3,-0.0165
16,COc1ccc(CN(CCC#N)C(=S)NC(=O)c2ccccc2)cc1,active: 4.49
17,O=C(Nc1nc(-c2ccc(Cl)cc2)cs1)c1cccnc1,-0.375
18,CN=Cc1cc(-c2ccccc2)sc1O,0.0198
19,CO/N=C/c1cc([N+](=O)[O-])ccc1Sc1ccc(C)cc1,0.195
20,O=C(COc1ccccc1F)Nc1nnc(-c2ccncc2)s1,-0.00228
21,O=C(COC(=O)c1ccc(S(=O)(=O)NCc2ccco2)cc1)NCC1CCCCC1,0.0929
22,COc1ccc2oc(=O)c(C(=O)N3CCCc4ccccc43)cc2c1,-0.203
23,COC(=O)[C@H](CCSC)NC(=O)NCc1cccs1,-0.717
24,COCCN1C(=O)C(=O)/C(=C(/O)c2ccc3c(c2)OCCO3)C1c1ccc(C(=O)OC)cc1 (stereo not given),0.269

row,Structure (SMILES),z-score
1,COc1ccc(C)cc1N(C)C(=O)c1coc(=O)c2ccccc12,-0.0905
2,Cc1cc(C(=O)COC(=O)CNC(=O)c2ccc(F)cc2)c(C)n1Cc1ccco1,-0.438
3,Cc1cc(C(=O)COC(=O)c2ccc3c(c2)OCO3)c(C)n1Cc1cccs1,-0.202
4,COc1ccc(CSc2nnnn2-c2ccccc2)cc1,-0.555
5,CC1CN(C(=O)c2cc3c(s2)CCC3)CC(C)O1 (stereo not given),0.0626
6,COc1ccc(S(=O)(=O)NCCCCNS(=O)(=O)c2ccc(OC)cc2)cc1,-0.0286
7,CCCCCCSc1nc(O)c(C2OC(=O)c3c2ccc(OC)c3OC)c(=O)n1CC (stereo not given),1.04
8,Cc1nc2ncnn2c(C)c1Cc1ccccc1Cl,-0.0847
9,O=C(Nc1ccon1)c1sc2ccccc2c1Cl,0.0961
10,CCOC(=O)Cc1csc(NC(=S)NC(=O)c2ccccc2C)n1,active: 9.08
11,COc1ccc(NC(=O)c2ccc(S(=O)(=O)N3CCOCC3)cc2)c(OC)c1,-0.369
12,Cc1ccccc1CN(c1ccc(C(=O)N2CCc3ccccc3C2)cc1)S(C)(=O)=O,-0.175
13,O=C(c1cc(-c2cccs2)on1)N1CCN(c2ccc(F)cc2)CC1,-0.974
14,CCOc1cc(C(=O)Nc2ccc(F)cc2)cc(Br)c1OC,-0.0681
15,COc1cc(OC)cc(OCC(O)Cn2cnc3cc(C)c(C)cc32)c1 (stereo not given),-0.275
16,CCOC(=O)c1c(C)[nH]c(C(=O)OCC(=O)N(C)C2CCS(=O)(=O)C2)c1C (stereo not given),0.131
17,CCN(CC)CCn1c(NCc2cc(OC)ccc2OC)nc2ccccc21,0.342
18,CCN1CCN(/C=N/c2nc(C)cs2)CC1,0.384
19,Cn1c(=O)c2cc(S(=O)(=O)Nc3ccc4c(c3)OCO4)ccc2n(C)c1=O,0.257
20,C=CCCC(=O)Nc1nc(C)c(-c2csc(Nc3cc(OC)ccc3OC)n2)s1,-0.191
21,O=C(CCCn1c(=S)[nH]c2cc3c(cc2c1=O)OCO3)N1CCc2ccccc2C1,0.596
22,Cc1cccc(C)c1N(CC(=O)NN=C1CCCCCC1)S(C)(=O)=O,-0.129

# — PubChem BioAssay AID488969 (Vanderbilt High Throughput Screening Facility, 2010)
